Assay results taken from paper PMC12664036.
These are yes or no findings as the source states them, for the method shown. Binding seen in cells or lysates may run through a third protein. Some entries that bind do so weakly or less than the wild type.

Tests used:
[1] = target: Jade1S (smaller Jade1 isoform), purified from Expi293F cells (UniProt Q6IE81); experiment: pull-down; tagged Jade1L or Jade1S purified from transfected Expi293F cells by methods similar to Oct4 (nuclear extract, anti-FLAG M2 agarose, FLAG peptide elution); co-purifying bands seen by Coomassie and identified by immunoblot
[2] = target: twin-strep-tagged Jade1L (large Jade1 isoform), expressed in Expi293F cells (UniProt Q6IE81); experiment: as above
[3] = target: Oct4 (Pou5f1), endogenous in mouse embryonic stem cells (mouse (endogenous in mouse ESCs)) (UniProt P20263); experiment: co-IP; WT mouse ESC extracts; antibodies against Oct4 and Jade1
[4] = target: Oct4 (Pou5f1), endogenous in mouse embryonic stem cells (mouse (endogenous in mouse ESCs)) (UniProt P20263); experiment: condition: only Oct4 captured on WT octamer DNA beads instead of MORE DNA; pull-down; WT octamer DNA on FG beads, Oct1 deficient mouse ESC extract; eluate immunoblotted with anti-Oct4 and anti-Jade1
[5] = target: Oct4 (Pou5f1), endogenous in mouse embryonic stem cells (mouse (endogenous in mouse ESCs)) (UniProt P20263); experiment: co-IP; Oct1 deficient mouse ESC extracts in RIPA buffer; IP with anti-Oct4 or anti-Jade1 (isotype IgG as control), Protein G Dynabeads, 4 C; immunoblot of the other protein
[6] = target: Oct4 (Pou5f1), endogenous in mouse embryonic stem cells (mouse (endogenous in mouse ESCs)) (UniProt P20263); experiment: pull-down; WT MORE DNA on FG beads, Oct1 deficient mouse ESC extract; eluate immunoblotted with anti-Oct4 and anti-Jade1
[7] = target: N-terminally truncated Oct4 lacking the first 130 amino acids, FLAG- and twin-strep-tagged (UniProt P20263); experiment: pull-down; Expi293F cells cotransfected with tagged Oct4 constructs and twin-strep Jade1L; lysates with 20 ug/ml MG-132 incubated with MORE DNA-coupled FG beads, washed three times with 100 mM KCl buffer; blot with HRP anti-StrepII
[8] = target: FLAG- and twin-strep-tagged Oct4 (full-length), expressed in Expi293F cells (UniProt P20263); experiment: as above

HBO1 co-purified with Jade1 from Expi293F cells (from UniProt O95251 1-611) (enzyme)
binding [1]: binds | binding [2]: binds

ING4 co-purified with Jade1 from Expi293F cells (from UniProt Q9UNL4 1-249)
binding [2]: binds

Jade1, endogenous in mouse embryonic stem cells (from UniProt Q6ZPI0 1-834)
binding [3]: binds | binding [4]: no binding | binding [5]: binds | binding [6]: binds

twin-strep-tagged Jade1L (large Jade1 isoform), expressed in Expi293F cells (from UniProt Q6IE81-1 1-842)
binding [7]: binds | binding [8]: binds
